From patent publication US7018641B1, “Materials and methods for the control of plant pathogens” (priority 2000, dated 2006)

Assays:
Test in all cases: Greenhouse test, tomato in pathogen-infested soil treated before planting
Conditions in all cases: in words
[1] = test system: Fusarium oxysporum f. sp. lycopersici
Phytophthora capsici = test system: Phytophthora capsici
Pythium aphanidermatum = test system: Pythium aphanidermatum
Athelia rolfsii = format: in vivo

Measured: infection of tomato roots and subsequent root rot

CC(C)=CCC/C(C)=C/CO [Geraniol, geraniol]
reduced or eliminated: all assays above
